How the values were obtained:
NCI-H322M [1] = experiment: NCI one-dose screen; assay type: cell-based; conditions: Homo sapiens, read-out: Growth Percent
Protocol: For screening of anticancer properties, all the developed compounds were chosen by the (NCI) for in-vitro antitumor evaluation. The assay was carried out using 59 human cancer cell lines obtained from nine tumour subpanels (breast, ovarian, melanoma, leukaemia, renal, CNS, lung, prostate, and colon cancer cell lines). Compounds were assessed at a 10 µM concentration. […] Also, hybrids 4a, 4b, 4e, 4i and 4j produced significant anti-proliferative effect in several cancer cells, particularly in leukaemia (RPMI-8226) and colon (HCT116) cells with growth percent of 47.87, −14.59, −24.56, −24.42, −15.84, −9.74, −53.36, −10.26, −31.29, and −39.51%, respectively.
(§1) The method description for NCI anticancer screening is provided in detail in the standard NCI-60 testing protocol.

NCI-H322M [2] = conditions: Homo sapiens
Protocol: Showing promising results in the single-dose assay, compound 4j was advanced for further investigation against a panel of 59 human cancer cell-lines at a five-dose levels. Those cell lines represent nine different tumours, and they were all incubated with our compound at 5 increasing concentrations (0.01, 0.1, 1, 10 and 100 µM). The In-vitro five-dose assay results were listed in Table 1, as GI50 which is the concentration causes 50% inhibition of cell proliferation and it was expressed in µM.
as §1

| Structure (SMILES) | activity at 10 µM (NCI-H322M [1]) [%] | GI50 (NCI-H322M [2]) [µM] | CC50 (NCI-H322M [2]; read-out: LC50 (the source's name)) [µM] |
| --- | --- | --- | --- |
| O=C(/C=C/c1cccc(Cl)c1)c1ccc(-n2cc(CN3CCN(c4cc5c(cc4F)c(=O)c(C(=O)O)cn5C4CC4)CC3)nn2)cc1 [Compound 4b, (E)-7-(4-((1–(4-(3-(3-chlorophenyl)acryloyl)phenyl)-1H-1,2,3-triazol-4-yl)methyl)piperazin-1-yl)-1-cyclopropyl-6-fluoro-4-oxo-1,4-dihydroquinoline-3-carboxylic acid] | 80.2 | – | – |
| O=C(/C=C/c1ccc(Br)cc1)c1ccc(-n2cc(CN3CCN(c4cc5c(cc4F)c(=O)c(C(=O)O)cn5C4CC4)CC3)nn2)cc1 [Compound 4d, (E)-7-(4-((1-(4-(3-(4-bromophenyl)acryloyl)phenyl)-1H-1,2,3-triazol-4-yl)methyl)piperazin-1-yl)-1-cyclopropyl-6-fluoro-4-oxo-1,4-dihydroquinoline-3-carboxylic acid] | 88.8 | – | – |
| Cc1ccc(/C=C/C(=O)c2ccc(-n3cc(CN4CCN(c5cc6c(cc5F)c(=O)c(C(=O)O)cn6C5CC5)CC4)nn3)cc2)cc1 [Compound 4f, (E)-1-cyclopropyl-6-fluoro-4-oxo-7-(4-((1-(4-(3-(p-tolyl)acryloyl)phenyl)-1H-1,2,3-triazol-4-yl)methyl)piperazin-1-yl)-1,4-dihydroquinoline-3-carboxylic acid] | 87.1 | – | – |
| O=C(/C=C/c1ccc(F)cc1)c1ccc(-n2cc(CN3CCN(c4cc5c(cc4F)c(=O)c(C(=O)O)cn5C4CC4)CC3)nn2)cc1 [Compound 4e, (E)-1-cyclopropyl-6-fluoro-7–(4-((1–(4-(3-(4-fluorophenyl)acryloyl)phenyl)-1H-1,2,3-triazol-4-yl)methyl)piperazin-1-yl)-4-oxo-1,4-dihydroquinoline-3-carboxylic acid] | 77.5 | – | – |
| COc1cc(/C=C/C(=O)c2ccc(-n3cc(CN4CCN(c5cc6c(cc5F)c(=O)c(C(=O)O)cn6C5CC5)CC4)nn3)cc2)cc(OC)c1OC [Compound 4j, (E)-1-cyclopropyl-6-fluoro-4-oxo-7–(4-((1–(4-(3-(3,4,5-trimethoxyphenyl)acryloyl)phenyl)-1H-1,2,3-triazol-4-yl)methyl)piperazin-1-yl)-1,4-dihydroquinoline-3-carboxylic acid] | 52.6 | 3.58 | > 100 |
| O=C(/C=C/c1ccc(Cl)cc1)c1ccc(-n2cc(CN3CCN(c4cc5c(cc4F)c(=O)c(C(=O)O)cn5C4CC4)CC3)nn2)cc1 [Compound 4c, (E)-7-(4-((1-(4-(3-(4-chlorophenyl)acryloyl)phenyl)-1H-1,2,3-triazol-4-yl)methyl)piperazin-1-yl)-1-cyclopropyl-6-fluoro-4-oxo-1,4-dihydroquinoline-3-carboxylic acid] | 84.4 | – | – |
| O=C(/C=C/c1ccccc1)c1ccc(-n2cc(CN3CCN(c4cc5c(cc4F)c(=O)c(C(=O)O)cn5C4CC4)CC3)nn2)cc1 [Compound 4a, (E) 7-(4-((1–(4-Cinnamoylphenyl)-1H-1,2,3-triazol-4-yl)methyl)piperazin-1-yl)-1-cyclopropyl-6-fluoro-4-oxo-1,4-dihydroquinoline-3-carboxylic acid] | 89.2 | – | – |
| COc1ccc(/C=C/C(=O)c2ccc(-n3cc(CN4CCN(c5cc6c(cc5F)c(=O)c(C(=O)O)cn6C5CC5)CC4)nn3)cc2)cc1OC [Compound 4i, (E)-1-cyclopropyl-7-(4-((1-(4-(3–(3,4-dimethoxyphenyl)acryloyl)phenyl)-1H-1,2,3-triazol-4-yl)methyl)piperazin-1-yl)-6-fluoro-4-oxo-1,4-dihydroquinoline-3-carboxylic acid] | 72.8 | – | – |
| CN(C)c1ccc(/C=C/C(=O)c2ccc(-n3cc(CN4CCN(c5cc6c(cc5F)c(=O)c(C(=O)O)cn6C5CC5)CC4)nn3)cc2)cc1 [Compound 4h, (E)-1-cyclopropyl-7–(4-((1–(4-(3-(4-(dimethylamino)phenyl)acryloyl)phenyl)-1H-1,2,3-triazol-4-yl)methyl)piperazin-1-yl)-6-fluoro-4-oxo-1,4-dihydroquinoline-3-carboxylic acid] | 94.3 | – | – |
| COc1ccc(/C=C/C(=O)c2ccc(-n3cc(CN4CCN(c5cc6c(cc5F)c(=O)c(C(=O)O)cn6C5CC5)CC4)nn3)cc2)cc1 [Compound 4g, (E)-1-Cyclopropyl-6-fluoro-7-(4-((1-(4-(3-(4-methoxyphenyl)acryloyl)phenyl)-1H-1,2,3-triazol-4-yl)methyl)piperazin-1-yl)-4-oxo-1,4-dihydroquinoline-3-carboxylic acid] | 78.1 | – | – |

— article PMC9116245, “New 1,2,3-triazole linked ciprofloxacin-chalcones induce DNA damage by inhibiting human topoisomerase I& II and tubulin polymerization” (Journal of Enzyme Inhibition and Medicinal Chemistry, 2022)
